± gives the standard deviation of the averaged measurements. The list shows a part of the results.
system: PfAP2-G AP2 domain (GST-tagged); assay: gcPBM binding intensity (ln(normalized median fluorescence intensity)); higher = stronger DNA binding
How it was run: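 GST-fused DNA-binding domains of P. falciparum, expressed in E. coli, were applied at about 25 μg on average for 1 h to an Agilent 4 × 180k array of primer-extended double-stranded 36-bp intergenic genomic probes and negative controls. Binding intensity is the highest Masliner-normalised natural-log median intensity across replicate spots of either probe orientation, measured with Alexa488 anti-GST antibody and a 488 nm scan.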

| Sequence | gcPBM binding intensity (ln) |
| --- | --- |
| AATTTAAAAAATAACAGTACATAAAATATATACATA [XGTACX_site7917] | 10.8 ± 0.48 |
| GTATGATGCATAAGAGTGCATAAGGATATTTCTTCA | 9.965 ± 0.021 |
| TAATATTAAATAAATAAAATATATAATATATATATA [XGTACX_negctrl_site49] | 9.47 ± 0.2 |
| TAATATATAACGTGCACACACACATCTACGTATGAA [CACACA_site5080] | 10.5 ± 0.34 |
| TGTGTATATTATATGTGTACATATCAATGTTTATAT [XGTACX_site1885] | 11.4 ± 0.89 |
| TGGCATTAAAATTTAGTGCATATATCTTAGCATGGG | 9.79 ± 0.014 |
| AGATATGTTTTTAATTGTACATAAATACACAAATAT [XGTACX_site5981] | 11 ± 0.67 |
| TGTAATAAATAGTACACACACACATATATATATATT [CACACA_site1388] | 11.4 ± 0.94 |
| AAAGAATTATATAAGGTGCACGAATGTTTCTTTAAT | 10.03 ± 0.028 |
| ATATGTGTGTGTATTTGTACCCAATTTTTATATATA [XGTACX_site4948] | 11.3 ± 0.78 |
| AAAAAAAAAAAAAAAAAAAAAATACATATATATATA [CACACA_negctrl_site290] | 10.8 ± 0.44 |
| TGTTCTATTCTATTATTATTTACAAATTATAAATAA [GTGCAC_negctrl_site232] | 9.98 ± 0.18 |
| TATATATATTAGTGTGCACACTTTTTATTTTTATCC [CACACA_site8506] | 10.5 ± 0.28 |
| ATATATTTATAATAGGTGCATATGTTTTATTTTTCC [GTGCAC_site9849] | 9.945 ± 0.078 |
| TCGTGTTAAATTTTTACACACAAACTTGCAATAATT [CACACA_site3824] | 10.1 ± 0.21 |
| AACTATAACTAAAAAAATCACATAAAATATTTTATT [TGCATGCA_negctrl_site363] | 9.66 ± 0.14 |
| TATAAATATATTTATACACACATTAGTGTATACATG [CACACA_site7397] | 10.2 ± 0.11 |
| AACAATAAAAATAATTGTACAAGTTTAAAAAAAATT [XGTACX_site1987] | 11.2 ± 0.63 |
| TCTTTAAATTTCTCAACACACAGTTATAAAAAATAA [CACACA_site2856] | 9.8 ± 0.085 |
| TATATCTTATTTAACACACACAAAGAAAATAGAAAA [CACACA_site3732] | 10.2 ± 0.18 |
| AATATATATAATTATAGTACAGAAAATTAAAAAAGA [XGTACX_site2943] | 11.1 ± 0.47 |
| ATATTTTTTTTTGTTAGTACTCATATTTGTAGTTTT [XGTACX_site7280] | 11.2 ± 0.82 |
| CATTTAAGACAAATTACACACGTATGCCAAATATAT [CACACA_site431] | 10.5 ± 0.23 |

| Sequence | gcPBM binding intensity (ln) |
| --- | --- |
| TTTTTAATTTCAATGGTGCAGTAATAATATAATAGT | 10.4 ± 0.46 |
| TTTTTTATTTATCCTATATATTACTAAATGAAGAAC [GTGCAC_negctrl_site333] | 9.99 ± 0.35 |
| TTATTTCAAAGTAAATCAGTAAATATTTGTTTTCTT [CACACA_negctrl_site1572] | 9.54 ± 0.18 |
| TCCTTATTTATATAATGTACTTTTTTTTTTCATTTT [XGTACX_site4275] | 11.4 ± 0.93 |
| ATGAATCCTTAATATGAACACACAAATATATTACAC [CACACA_site7943] | 10.3 ± 0.25 |
| TACAAGTATAAATAAGCACACATGTGGATATGTACA [CACACA_site4229] | 10.8 ± 0.42 |
| AAAATATAAAATAATGCACACATAAACAAAAAATCA [CACACA_site8382] | 10.2 ± 0.15 |
| TAAGAAGTATTTTCCTGTACATATTTTATATGTATG [XGTACX_site4658] | 11.2 ± 0.68 |
| TTATTTTATATATCACGTACATAGTTGTCTTCTTTT [XGTACX_site2906] | 11.1 ± 0.72 |
| TAAAGTTAAAAATTATGTACATATATATTGTATATT [XGTACX_site5528] | 11.1 ± 0.62 |
| GATAAAATAGGACCATATTCTTTAAAACGATAAAAT [XGTACX_negctrl_site405] | 10.9 ± 0.64 |
| ATATATATATATTTATGTACATATACATAATGTATA [XGTACX_site6387] | 11.2 ± 0.76 |
| TATATGTGTGTTATATGTACTTATATATATATATAT [XGTACX_site5570] | 11.3 ± 0.82 |
| ATAATGAACAAAGTAGTGCACTTTCCTTATCTTTTC | 10.4 ± 0.16 |
| AAGGTTTAAAATTACTGTACAAATATAAATAAATAT [XGTACX_site3756] | 10.8 ± 0.5 |
| ATCAAAAAAAAAAAAAGTACACAAAATTTTTTATTA [XGTACX_site7986] | 11.5 ± 0.76 |
| ACTAATATGTATATATATATATATATATATATATAT [CACACA_negctrl_site141] | 9.85 ± 0.33 |
| TACATATTTAAATACTGTACTCAAAAGAATTGTGCA [XGTACX_site2250] | 11.5 ± 1 |
| TATAGTATTCTAAATGCATGTAAATTATGTATATAT [TGCATGCA_site931] | 9.87 ± 0.057 |
| AAATTCCACGAACACACACACATATAAATAAATAAA [CACACA_site6697] | 10.2 ± 0.34 |
| TAGTAAAAACCAAAATGTACATGTGCCATTTTTTTA [XGTACX_site2630] | 11 ± 0.62 |
| TATATTATACTAAGAAGTACAATATTTTTATTGTAA [XGTACX_site2810] | 11.4 ± 1.1 |
| CTTATATTGTACAGTACACACCTTTATAATGTTATT [CACACA_site4280] | 11.5 ± 0.71 |

| Sequence | gcPBM binding intensity (ln) |
| --- | --- |
| GATTATTAATAGTAACGTACATATGTTATAAAATAT [XGTACX_site5277] | 11.2 ± 0.73 |
| GTTTATCACAGCCACGCACACATAATATCTGTATAT [CACACA_site5929] | 10.2 ± 0.18 |
| TTGTTTCTCTTTAAAAGTACAAAAATGGTTACATAT [XGTACX_site3109] | 11.2 ± 0.67 |
| TAGATTTTTTAATGTTGTACAAATATACGATATATA [XGTACX_site3258] | 11.2 ± 0.7 |
| ACTATTCATGCATATACACACACATATATATATATT [CACACA_site9309] | 10.5 ± 0.37 |
| ACATCAAGCAGACACACACACACACGCACACGCACA [CACACA_site6309] | 10.5 ± 0.28 |
| CAATATTTTATTTAAGCATGCTCTAGGGTGTAAAAG [TGCATGCA_site1001] | 10.2 ± 0.16 |
| CAATTTCTCTTAATTTGTACATATATGTTATACAAA [XGTACX_site3231] | 11 ± 0.22 |
| ACTTTAAACAAAAAAAGTACTCTTTAATGAATATAT [XGTACX_site7176] | 11.4 ± 0.82 |
| TATATATATATATATATATATATATATATATGTTGT [TGCATGCA_negctrl_site24] | 9.81 ± 0.23 |
| CCAACTAAAAAGGAATGTACATAGTTATGGTTGGAA [XGTACX_site8762] | 10.7 ± 0.32 |
| AAATATATATAAAAGTGTACATTTGTTATAATCAGT [XGTACX_site4822] | 11.3 ± 0.86 |
| TTATATATTTCTACTCATATTACAATGTGAGAAATA [CACACA_negctrl_site873] | 9.805 ± 0.078 |
| TAGATATATAATTTTTGTACGTAGTCGAATCTCAGA [XGTACX_site765] | 11 ± 0.65 |
| CTCAACAAAATATGAGTGCATTGTTATTACATATAT | 10.21 ± 0.057 |
| AACATTAAAAGGGATACACACATATAAATAAATAAT [CACACA_site489] | 10.2 ± 0.25 |
| TTTCCCTAATGAAAGTGTACCTGTGAGAAAAAAAAG [XGTACX_site194] | 11.3 ± 0.82 |
| TTGTAATTATTAAACACACACAAAATATCTAGAATA [CACACA_site7231] | 10.1 ± 0.14 |
| ATTTAGATTAACACTTGTACATAATACATACAAATA [XGTACX_site4147] | 10.9 ± 0.5 |
| ATTTTTTTTTGTGTATATAAATAAATAAATATATAT [GTGCAC_negctrl_site603] | 10 ± 0.16 |
| AATTAGATACTAACAAGTACATATATATATATATAT [XGTACX_site2252] | 11.2 ± 0.79 |
| TGTATATATTAATGTACACACATGCGTATGTTCGTT [CACACA_site3583] | 11.2 ± 0.67 |
| TTATTTATTTATATAGTGCAATAAACACATAAATAG | 10.1 ± 0.26 |

| Sequence | gcPBM binding intensity (ln) |
| --- | --- |
| AAAAAAAAAAAAAGAACACACACAGTGCACATTCGG [CACACA_site8163] | 10.3 ± 0.12 |
| CATATTGGTATGCTCATGCACTTTTATTTTGTTATT [GTGCAC_site9553] | 10.2 ± 0.13 |
| AAAAGAAAAGAGAGGAGTACAAAATATAATTATCTA [XGTACX_site5172] | 11.3 ± 0.76 |
| TATAAAAAGCAAAACAAAAAAACAAATTGAAAAATT [TGCATGCA_negctrl_site158] | 9.76 ± 0.28 |
| TATAAATAATAAAGATGTACTTTTTATGATTCCTAC [XGTACX_site7003] | 11.4 ± 1 |
| CCGTAGTTTTAAAATAGTACTTTTATGGTTAATAAA [XGTACX_site3162] | 11.1 ± 0.68 |
| TTTTTTATTTTTTTATTGTTTTATTGTTTCATTGTT [XGTACX_negctrl_site128] | 9.48 ± 0.16 |
| TTACTACTATATTATACACACATATATTTATTTATA [CACACA_site7274] | 9.99 ± 0.071 |
| TAATTTTTCCTTTTTGCACACATTAACGTCGACGAA [CACACA_site4025] | 10.1 ± 0.21 |
| CCATAAAATCATAAGCGTACTTAATATATTTTACTT [XGTACX_site559] | 11.3 ± 0.82 |
| AACATACGACAATACGCACACATATATGTACATATT [CACACA_site1917] | 11.3 ± 0.75 |
| TATATAATAATTTAGAGTACTGATAAAATATTCCAT [XGTACX_site6200] | 11.1 ± 0.68 |
| TTAAACAATTTAGACATACACACAAAAATAATATTA [CACACA_site385] | 10.095 ± 0.007 |
| AGCATACATATTTTTTGTACATATATATATATATAT [XGTACX_site8536] | 10.9 ± 0.58 |
| CAATTTATTTTTATTACACACTATCCAAATAATTTC [CACACA_site2956] | 10.1 ± 0.16 |
| TCTTTTCGTTCATGCTGTACTTAATTGCTCTAATTT [XGTACX_site4816] | 11.2 ± 0.79 |
| AACCTTACACAAGGGGTGCAATATTATTTCGATAAA [GTGCAC_site9600] | 10.3 ± 0.35 |
| TGCTCCTATTATATAGTGCATTTATTTTAATAAACG | 9.96 ± 0.17 |
| TAATTTATAAAAAATTGTACATTAAACATATATATA [XGTACX_site5164] | 10.8 ± 0.56 |
| TAAATTGTATATGAGACTATACTATAAAAGTATGAA [XGTACX_negctrl_site22] | 9.845 ± 0.064 |
| TGTCTGTGCGGGTGTACACATTTCATATTACCCAAT [CACACA_site5593] | 11.8 ± 0.98 |
